In article PMC10575737 one finds binding data, which are given here for twelve molecules.

Chains of the proteins cited; added tags and fusions are not shown.
UniProt Q05512: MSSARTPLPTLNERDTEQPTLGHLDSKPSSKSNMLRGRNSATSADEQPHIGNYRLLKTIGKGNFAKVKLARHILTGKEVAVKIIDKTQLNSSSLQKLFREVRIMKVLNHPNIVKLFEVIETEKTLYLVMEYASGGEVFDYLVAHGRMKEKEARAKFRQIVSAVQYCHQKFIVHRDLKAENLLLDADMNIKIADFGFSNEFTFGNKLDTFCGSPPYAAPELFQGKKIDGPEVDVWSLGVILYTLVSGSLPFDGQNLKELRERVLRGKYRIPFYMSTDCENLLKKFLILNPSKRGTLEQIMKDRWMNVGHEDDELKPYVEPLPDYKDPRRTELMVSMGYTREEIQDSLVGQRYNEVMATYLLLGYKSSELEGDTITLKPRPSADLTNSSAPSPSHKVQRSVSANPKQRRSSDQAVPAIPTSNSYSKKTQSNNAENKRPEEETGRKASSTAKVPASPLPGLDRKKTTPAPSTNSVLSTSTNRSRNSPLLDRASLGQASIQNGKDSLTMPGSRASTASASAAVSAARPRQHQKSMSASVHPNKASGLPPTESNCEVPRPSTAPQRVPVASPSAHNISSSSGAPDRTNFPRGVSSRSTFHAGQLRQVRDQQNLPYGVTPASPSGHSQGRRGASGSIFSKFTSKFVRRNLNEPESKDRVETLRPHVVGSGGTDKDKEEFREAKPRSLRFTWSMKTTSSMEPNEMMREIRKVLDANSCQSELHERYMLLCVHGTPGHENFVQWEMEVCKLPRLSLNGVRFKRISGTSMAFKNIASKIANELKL
UniProt Q96NE9: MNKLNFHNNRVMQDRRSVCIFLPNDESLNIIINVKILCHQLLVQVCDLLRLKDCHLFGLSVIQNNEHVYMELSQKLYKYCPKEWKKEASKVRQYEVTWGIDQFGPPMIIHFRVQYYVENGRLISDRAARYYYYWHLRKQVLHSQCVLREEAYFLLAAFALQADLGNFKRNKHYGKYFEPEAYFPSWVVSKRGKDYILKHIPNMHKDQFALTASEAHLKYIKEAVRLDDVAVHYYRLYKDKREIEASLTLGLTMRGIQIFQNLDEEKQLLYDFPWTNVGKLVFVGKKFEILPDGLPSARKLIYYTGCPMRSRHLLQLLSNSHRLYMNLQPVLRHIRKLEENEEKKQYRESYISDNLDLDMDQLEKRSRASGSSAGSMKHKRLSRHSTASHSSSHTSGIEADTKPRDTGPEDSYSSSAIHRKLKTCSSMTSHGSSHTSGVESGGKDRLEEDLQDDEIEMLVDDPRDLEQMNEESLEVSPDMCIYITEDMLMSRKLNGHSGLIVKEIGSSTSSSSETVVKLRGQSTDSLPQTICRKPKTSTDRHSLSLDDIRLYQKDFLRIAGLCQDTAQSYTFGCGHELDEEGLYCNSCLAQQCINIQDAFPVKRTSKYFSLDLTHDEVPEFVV
UniProt Q03141: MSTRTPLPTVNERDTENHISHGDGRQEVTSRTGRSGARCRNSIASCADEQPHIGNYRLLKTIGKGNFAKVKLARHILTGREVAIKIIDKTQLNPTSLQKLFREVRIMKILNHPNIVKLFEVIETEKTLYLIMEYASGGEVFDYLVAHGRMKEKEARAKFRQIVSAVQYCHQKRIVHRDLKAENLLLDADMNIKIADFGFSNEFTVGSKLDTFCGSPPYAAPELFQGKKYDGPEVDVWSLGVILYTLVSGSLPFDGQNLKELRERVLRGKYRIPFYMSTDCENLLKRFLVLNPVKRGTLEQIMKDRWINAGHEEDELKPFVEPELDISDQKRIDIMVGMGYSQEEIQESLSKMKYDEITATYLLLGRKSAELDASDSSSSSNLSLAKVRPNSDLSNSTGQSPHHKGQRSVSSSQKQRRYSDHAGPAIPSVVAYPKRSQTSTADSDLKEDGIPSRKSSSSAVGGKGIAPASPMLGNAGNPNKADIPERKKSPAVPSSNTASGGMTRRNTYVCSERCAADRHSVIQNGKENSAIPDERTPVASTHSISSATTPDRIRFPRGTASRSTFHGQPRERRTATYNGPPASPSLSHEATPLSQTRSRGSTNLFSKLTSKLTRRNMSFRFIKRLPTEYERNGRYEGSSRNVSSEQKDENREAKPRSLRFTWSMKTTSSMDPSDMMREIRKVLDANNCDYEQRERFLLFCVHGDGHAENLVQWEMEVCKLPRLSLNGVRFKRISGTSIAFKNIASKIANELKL
UniProt P27448: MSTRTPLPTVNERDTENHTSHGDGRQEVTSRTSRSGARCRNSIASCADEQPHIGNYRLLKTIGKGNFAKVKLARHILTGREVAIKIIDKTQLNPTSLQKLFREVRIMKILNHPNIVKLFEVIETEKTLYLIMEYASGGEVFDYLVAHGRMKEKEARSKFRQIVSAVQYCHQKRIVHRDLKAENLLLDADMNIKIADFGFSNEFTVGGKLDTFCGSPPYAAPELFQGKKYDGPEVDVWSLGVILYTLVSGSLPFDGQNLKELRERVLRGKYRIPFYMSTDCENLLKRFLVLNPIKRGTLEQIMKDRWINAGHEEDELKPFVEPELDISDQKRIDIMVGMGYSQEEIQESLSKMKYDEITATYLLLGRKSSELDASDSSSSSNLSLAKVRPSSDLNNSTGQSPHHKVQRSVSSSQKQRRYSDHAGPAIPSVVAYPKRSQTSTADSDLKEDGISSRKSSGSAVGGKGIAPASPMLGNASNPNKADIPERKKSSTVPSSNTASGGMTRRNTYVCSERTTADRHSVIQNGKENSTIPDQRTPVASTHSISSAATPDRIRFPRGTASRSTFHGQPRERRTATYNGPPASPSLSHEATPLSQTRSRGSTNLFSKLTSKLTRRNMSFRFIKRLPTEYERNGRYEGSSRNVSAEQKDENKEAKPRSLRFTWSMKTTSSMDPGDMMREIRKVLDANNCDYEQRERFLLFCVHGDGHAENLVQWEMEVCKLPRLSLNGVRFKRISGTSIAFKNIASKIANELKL
UniProt Q7KZI7: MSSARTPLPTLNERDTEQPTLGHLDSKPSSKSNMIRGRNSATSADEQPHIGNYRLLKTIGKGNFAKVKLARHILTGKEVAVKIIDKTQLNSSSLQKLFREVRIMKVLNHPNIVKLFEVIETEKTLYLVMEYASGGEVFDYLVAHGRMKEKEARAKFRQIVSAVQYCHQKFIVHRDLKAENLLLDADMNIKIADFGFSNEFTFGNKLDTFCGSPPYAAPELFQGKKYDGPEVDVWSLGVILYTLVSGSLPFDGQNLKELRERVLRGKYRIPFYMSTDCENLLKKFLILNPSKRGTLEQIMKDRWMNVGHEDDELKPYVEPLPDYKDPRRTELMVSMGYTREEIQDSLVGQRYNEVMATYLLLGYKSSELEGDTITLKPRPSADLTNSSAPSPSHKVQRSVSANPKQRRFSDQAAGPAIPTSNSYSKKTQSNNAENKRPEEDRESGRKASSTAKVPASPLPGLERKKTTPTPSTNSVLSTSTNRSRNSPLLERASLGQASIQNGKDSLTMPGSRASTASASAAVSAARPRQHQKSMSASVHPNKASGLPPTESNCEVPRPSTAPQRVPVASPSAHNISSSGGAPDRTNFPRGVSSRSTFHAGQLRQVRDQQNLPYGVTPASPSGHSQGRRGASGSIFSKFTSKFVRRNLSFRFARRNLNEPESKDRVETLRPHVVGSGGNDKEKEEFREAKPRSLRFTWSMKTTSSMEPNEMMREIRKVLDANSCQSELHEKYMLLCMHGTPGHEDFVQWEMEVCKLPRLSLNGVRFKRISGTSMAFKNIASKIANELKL
UniProt Q9P0L2: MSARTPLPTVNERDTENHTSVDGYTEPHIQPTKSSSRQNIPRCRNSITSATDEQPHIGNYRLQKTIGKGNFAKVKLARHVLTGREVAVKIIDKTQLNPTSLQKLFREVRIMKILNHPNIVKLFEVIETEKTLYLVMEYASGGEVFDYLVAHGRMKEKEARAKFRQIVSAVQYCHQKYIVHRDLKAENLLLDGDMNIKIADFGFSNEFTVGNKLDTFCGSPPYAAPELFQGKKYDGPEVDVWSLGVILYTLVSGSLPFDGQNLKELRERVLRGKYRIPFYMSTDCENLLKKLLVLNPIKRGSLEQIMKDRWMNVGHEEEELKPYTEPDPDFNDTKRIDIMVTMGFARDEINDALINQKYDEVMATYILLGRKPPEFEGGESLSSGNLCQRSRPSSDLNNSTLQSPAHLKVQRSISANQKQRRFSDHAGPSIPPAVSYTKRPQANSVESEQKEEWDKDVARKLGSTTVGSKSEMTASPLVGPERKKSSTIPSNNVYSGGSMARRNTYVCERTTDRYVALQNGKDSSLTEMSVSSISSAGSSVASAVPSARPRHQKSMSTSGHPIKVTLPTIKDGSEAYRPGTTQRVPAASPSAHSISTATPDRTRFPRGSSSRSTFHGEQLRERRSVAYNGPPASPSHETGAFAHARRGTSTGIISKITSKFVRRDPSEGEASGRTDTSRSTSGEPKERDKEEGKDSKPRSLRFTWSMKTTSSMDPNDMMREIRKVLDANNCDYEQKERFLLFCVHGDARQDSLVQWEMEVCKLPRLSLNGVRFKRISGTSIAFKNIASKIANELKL
UniProt P35240: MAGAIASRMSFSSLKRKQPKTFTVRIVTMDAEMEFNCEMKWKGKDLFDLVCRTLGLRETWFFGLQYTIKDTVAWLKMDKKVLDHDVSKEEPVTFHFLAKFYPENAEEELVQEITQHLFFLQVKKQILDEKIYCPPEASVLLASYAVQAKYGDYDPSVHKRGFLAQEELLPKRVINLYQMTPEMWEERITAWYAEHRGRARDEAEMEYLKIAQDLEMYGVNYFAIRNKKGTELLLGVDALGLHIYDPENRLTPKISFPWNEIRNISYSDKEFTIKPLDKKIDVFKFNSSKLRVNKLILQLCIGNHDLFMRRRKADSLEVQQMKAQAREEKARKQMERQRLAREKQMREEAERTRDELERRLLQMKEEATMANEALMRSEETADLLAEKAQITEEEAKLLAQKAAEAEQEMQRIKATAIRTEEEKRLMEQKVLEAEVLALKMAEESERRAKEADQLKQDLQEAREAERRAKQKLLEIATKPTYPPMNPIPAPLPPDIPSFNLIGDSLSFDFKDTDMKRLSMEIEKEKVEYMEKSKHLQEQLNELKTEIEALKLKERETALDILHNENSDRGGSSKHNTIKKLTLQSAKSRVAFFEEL

The target of test [1] is T1, MST1 (mouse hepatocytes) (mouse (endogenous in hepatocytes)) (UniProt Q9JI11).
T1 sequence: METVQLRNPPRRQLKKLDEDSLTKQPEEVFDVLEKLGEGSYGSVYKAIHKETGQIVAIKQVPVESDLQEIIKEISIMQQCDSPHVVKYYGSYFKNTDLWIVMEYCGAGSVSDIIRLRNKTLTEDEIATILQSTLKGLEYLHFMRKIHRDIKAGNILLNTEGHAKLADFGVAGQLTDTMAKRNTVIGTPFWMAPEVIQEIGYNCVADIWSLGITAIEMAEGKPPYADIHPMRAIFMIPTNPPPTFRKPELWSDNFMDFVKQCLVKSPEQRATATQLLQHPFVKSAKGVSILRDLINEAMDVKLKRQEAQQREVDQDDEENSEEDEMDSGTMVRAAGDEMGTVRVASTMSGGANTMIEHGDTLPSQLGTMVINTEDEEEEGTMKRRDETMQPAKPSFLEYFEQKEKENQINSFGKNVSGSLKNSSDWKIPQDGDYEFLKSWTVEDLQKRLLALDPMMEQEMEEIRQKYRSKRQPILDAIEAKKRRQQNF
Nature of the test: co-IP; whole-cell lysates of primary hepatocytes from mice (WT; Numb and Ww45 knock-outs; with or without DDC), endogenous proteins.

For test [2], the target named is NUMB (mouse hepatocytes) (mouse (endogenous in primary hepatocytes)) (UniProt Q9QZS3). The test is described as above.
In another test the target is T2, GST-tagged NUMB1 (UniProt P49757).
T2 sequence: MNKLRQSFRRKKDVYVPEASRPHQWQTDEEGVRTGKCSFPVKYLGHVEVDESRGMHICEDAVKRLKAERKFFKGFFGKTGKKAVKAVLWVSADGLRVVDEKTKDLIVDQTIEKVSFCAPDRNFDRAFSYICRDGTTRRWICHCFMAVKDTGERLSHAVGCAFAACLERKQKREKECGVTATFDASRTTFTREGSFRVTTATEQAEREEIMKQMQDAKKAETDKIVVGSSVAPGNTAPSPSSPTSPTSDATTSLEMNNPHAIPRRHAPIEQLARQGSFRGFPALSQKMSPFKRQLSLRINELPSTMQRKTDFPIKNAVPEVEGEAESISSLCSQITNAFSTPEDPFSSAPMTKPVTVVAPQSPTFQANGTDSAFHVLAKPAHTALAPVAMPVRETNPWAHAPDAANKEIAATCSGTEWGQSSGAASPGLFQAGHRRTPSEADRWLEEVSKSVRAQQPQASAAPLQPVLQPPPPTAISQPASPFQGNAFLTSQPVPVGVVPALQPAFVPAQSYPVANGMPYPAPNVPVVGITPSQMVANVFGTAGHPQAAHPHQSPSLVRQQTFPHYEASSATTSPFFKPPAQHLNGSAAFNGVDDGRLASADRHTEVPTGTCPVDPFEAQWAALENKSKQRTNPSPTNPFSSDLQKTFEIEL
Nature of the test: pull-down; GST affinity bead precipitates of GST-tagged NUMB with His-tagged proteins, immunoblot; test of direct binding; both purified. Background: In western blotting, separated proteins are transferred to a membrane and probed.

Test [3] deals with T3, NUMB endocytic adaptor protein (human (endogenous in HepG2)) (UniProt P49757).
T3 sequence: T2 sequence
Nature of the test: co-IP; whole-cell lysates from HepG2 cells cultured at different cell densities (LCD, HCD), endogenous proteins; also SPTAN1 Y1176F knock-in cells, knockdown of SRC or bosutinib.

The target in test [4] is T4, sterile 20-like kinase MST1 (human (endogenous in HepG2)) (UniProt Q13043).
T4 sequence: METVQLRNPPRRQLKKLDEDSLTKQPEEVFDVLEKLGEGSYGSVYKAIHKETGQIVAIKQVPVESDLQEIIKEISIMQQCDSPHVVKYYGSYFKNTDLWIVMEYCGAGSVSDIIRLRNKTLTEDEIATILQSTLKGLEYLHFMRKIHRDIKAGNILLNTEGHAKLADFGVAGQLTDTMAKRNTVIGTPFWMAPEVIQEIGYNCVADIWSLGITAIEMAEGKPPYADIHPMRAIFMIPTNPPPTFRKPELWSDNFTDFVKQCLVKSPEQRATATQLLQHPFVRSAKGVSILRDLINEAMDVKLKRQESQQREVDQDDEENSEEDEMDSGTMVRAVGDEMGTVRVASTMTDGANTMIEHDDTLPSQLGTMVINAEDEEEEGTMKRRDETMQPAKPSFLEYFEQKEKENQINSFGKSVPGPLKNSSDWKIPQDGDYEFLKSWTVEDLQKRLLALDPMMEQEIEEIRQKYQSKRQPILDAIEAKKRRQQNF
The description is as above.

In a further test the target is T5, NUMB1 (UniProt P49757).
T5 sequence: T2 sequence
Nature of the test: co-IP; whole-cell lysates from HEK293T cells cotransfected with the indicated constructs.

For the next test, the target named is T6, NUMB2 (UniProt P49757).
T6 sequence: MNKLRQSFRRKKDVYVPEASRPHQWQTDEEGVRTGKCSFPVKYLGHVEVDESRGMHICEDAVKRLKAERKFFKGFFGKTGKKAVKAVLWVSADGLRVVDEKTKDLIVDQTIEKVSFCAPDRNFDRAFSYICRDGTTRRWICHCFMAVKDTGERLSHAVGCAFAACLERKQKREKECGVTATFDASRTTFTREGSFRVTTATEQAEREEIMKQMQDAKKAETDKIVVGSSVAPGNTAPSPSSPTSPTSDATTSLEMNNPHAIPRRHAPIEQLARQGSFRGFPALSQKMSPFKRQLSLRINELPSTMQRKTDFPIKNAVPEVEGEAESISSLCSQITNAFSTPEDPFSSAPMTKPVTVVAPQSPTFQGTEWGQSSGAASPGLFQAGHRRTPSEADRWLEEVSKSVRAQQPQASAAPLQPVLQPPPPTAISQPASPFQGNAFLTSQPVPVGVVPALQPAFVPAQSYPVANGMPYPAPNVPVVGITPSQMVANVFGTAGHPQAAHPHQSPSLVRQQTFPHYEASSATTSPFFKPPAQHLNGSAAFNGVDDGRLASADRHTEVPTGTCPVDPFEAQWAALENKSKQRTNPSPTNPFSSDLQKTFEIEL
Described as above.

For a further test, the target named is T7, NUMB3 (UniProt P49757).
T7 sequence: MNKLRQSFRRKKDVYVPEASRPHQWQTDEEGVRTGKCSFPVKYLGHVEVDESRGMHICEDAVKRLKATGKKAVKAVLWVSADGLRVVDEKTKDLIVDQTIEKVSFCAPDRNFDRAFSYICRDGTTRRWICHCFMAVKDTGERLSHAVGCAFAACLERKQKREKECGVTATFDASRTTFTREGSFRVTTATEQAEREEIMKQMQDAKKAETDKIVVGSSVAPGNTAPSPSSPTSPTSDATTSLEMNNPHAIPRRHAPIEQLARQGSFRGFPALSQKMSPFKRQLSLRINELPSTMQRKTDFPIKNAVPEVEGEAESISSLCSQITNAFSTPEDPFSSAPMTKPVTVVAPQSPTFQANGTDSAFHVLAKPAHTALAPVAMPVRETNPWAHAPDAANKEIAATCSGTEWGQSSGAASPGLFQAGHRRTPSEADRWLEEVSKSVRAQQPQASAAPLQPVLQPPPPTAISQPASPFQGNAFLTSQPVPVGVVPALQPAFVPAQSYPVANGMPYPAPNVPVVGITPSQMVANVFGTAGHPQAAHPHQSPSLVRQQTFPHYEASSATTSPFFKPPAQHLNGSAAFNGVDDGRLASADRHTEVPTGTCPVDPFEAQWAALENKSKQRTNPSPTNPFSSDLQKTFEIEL
The description is as above.

In a further test the target is T8, NUMB4 (UniProt P49757).
T8 sequence: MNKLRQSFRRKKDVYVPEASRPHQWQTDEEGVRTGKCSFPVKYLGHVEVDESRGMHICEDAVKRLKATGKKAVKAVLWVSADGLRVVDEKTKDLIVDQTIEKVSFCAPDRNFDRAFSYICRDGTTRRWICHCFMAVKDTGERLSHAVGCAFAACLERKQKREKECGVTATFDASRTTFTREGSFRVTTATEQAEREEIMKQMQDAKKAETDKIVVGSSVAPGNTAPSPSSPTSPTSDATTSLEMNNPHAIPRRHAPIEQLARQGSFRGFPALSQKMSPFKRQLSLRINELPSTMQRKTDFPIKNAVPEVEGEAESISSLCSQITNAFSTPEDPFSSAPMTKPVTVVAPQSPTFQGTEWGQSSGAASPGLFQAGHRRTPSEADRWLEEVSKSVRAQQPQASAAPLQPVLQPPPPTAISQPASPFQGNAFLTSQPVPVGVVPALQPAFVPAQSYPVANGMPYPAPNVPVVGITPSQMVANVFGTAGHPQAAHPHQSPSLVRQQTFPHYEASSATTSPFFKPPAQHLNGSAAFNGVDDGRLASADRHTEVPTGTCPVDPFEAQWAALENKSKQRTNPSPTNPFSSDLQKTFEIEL
The test is described as above.

Results are given in words; binding and its absence hold for the method and conditions named. For some assays here: Binding seen in cells or lysates may run through a third protein. Some entries that bind do so weakly or less than the wild type. For some assays here: Where a sequence is shown, tags or fusion partners need not be part of it.

“MARK2 (mouse hepatocytes) (from UniProt Q05512 1-776) (enzyme)”: the binding entry in test [1] and in test [2] was “binds” each time.
For the molecule “FRMD6 (tested for direct binding to NUMB1) (from UniProt Q96NE9 1-622)”, the binding result with GST-tagged NUMB1 is “no binding”.
With “MARK3 (mouse hepatocytes) (from UniProt Q03141 1-753) (enzyme)”, the binding entry in test [2] was “binds”.
In the case of “microtubule affinity-regulating kinase 3 (from UniProt P27448 1-753) (enzyme)”, the binding result in test [3] is reported as “binds”.
For “microtubule affinity-regulating kinase 2 (from UniProt Q7KZI7 1-788) (enzyme)”, the binding entry in test [3] and in test [4] was “binds” throughout.
On to “His-tagged MARK2 (from UniProt Q7KZI7 1-788) (enzyme)”, for which, in the test with GST-tagged NUMB1, the binding entry is “binds”.
Turning to “His-tagged MARK1 (from UniProt Q9P0L2 1-795) (enzyme)”, the binding entry with GST-tagged NUMB1 is listed as “binds”.
Consider “His-tagged MARK3 (from UniProt P27448 1-753) (enzyme)”, for which, in the test with GST-tagged NUMB1, the binding result is on record as “binds”.
Consider “AMOT (tested for direct binding to NUMB1) (from UniProt Q4VCS5 1-1084)”, for which, in the test with GST-tagged NUMB1, the binding result is “no binding”.
Same read-out and setting: the entry for “NF2 (tested for direct binding to NUMB1) (from UniProt P35240 1-595)” is “no binding”.
Consider “MARK2 (cotransfected with the NUMB isoforms) (from UniProt Q7KZI7 1-788) (enzyme)”, for which the binding entry with NUMB1, in the test with NUMB2, in the test with NUMB3 and with NUMB4 was “binds” in each case.

B1: RASSF1 (tested for direct binding to NUMB1) (protein, UniProt Q9NS23 1-344)
chain: MSGEPELIELRELAPAGRAGKGRTRLERANALRIARGTACNPTRQLVPGRGHRFQPAGPATHTWCDLCGDFIWGVVRKGLQCARLSADCKFTCHYRCRALVCLDCCGPRDLGWEPAVERDTNVDEPVEWETPDLSQAEIEQKIKEYNAQINSNLFMSLNKDGSYTGFIKVQLKLVRPVSVPSSKKPPSLQDARRGPGRGTSVRRRTSFYLPKDAVKHLHVLSRTRAREVIEALLRKFLVVDDPRKFALFERAERHGQVYLRKLLDDEQPLRLRLLAGPSDKALSFVLKENDSGEVNWDAFSMPELHNFLRILQREEEEHLRQILQKYSYCRQKIQEALHACPLG
Consider B1, for which, in the test with GST-tagged NUMB1, the binding entry is recorded as “no binding”.
